# Reference: the supplement of paper PMC8728848
# The list shows a part of the results.
# Experiments:
# Experiment in all cases: glycan array binding signal (z-score within array); higher = stronger binding
# Conditions in all cases: glycan notation: IUPAC condensed, linker removed
# [1] = molecular target: GlcNAc(b1-3)Gal(b1-4)GlcNAc(b1-3)Gal(b1-4)GlcNAc(b1-2)Man(a1-3)[GlcNAc(b1-3)Gal(b1-4)GlcNAc(b1-3)Gal(b1-4)GlcNAc(b1-2)Man(a1-6)]Man(b1-4)GlcNAc(b1-4)[Fuc(a1-6)]GlcNAc
# Method in brief: (§1)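 Glycan array data came from 3228 arrays in the Consortium for Functional Glycomics database, and only arrays with an available protein sequence were kept. Glycan names were put into IUPAC-condensed notation, and columns mapping to the same glycan were averaged. The binding signal is a within-array Z-score, averaged across arrays of one protein sequence run at different concentrations or buffers and across linkers. A negative Z-score can be read as non-binding.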
# [2] = molecular target: GlcNAc(b1-3)Gal(b1-4)GlcNAc(b1-3)Gal(b1-4)GlcNAc(b1-2)[GlcNAc(b1-3)Gal(b1-4)GlcNAc(b1-3)Gal(b1-4)GlcNAc(b1-6)]Man(a1-6)[GlcNAc(b1-3)Gal(b1-4)GlcNAc(b1-3)Gal(b1-4)GlcNAc(b1-2)Man(a1-3)]Man(b1-4)GlcNAc(b1-4)[Fuc(a1-6)]GlcNAc
# Method in brief: as §1
# [3] = molecular target: GlcNAc(b1-3)Gal(b1-4)GlcNAc(b1-3)Gal(b1-4)GlcNAc(b1-3)Gal(b1-4)GlcNAc(b1-2)Man(a1-3)[GlcNAc(b1-3)Gal(b1-4)GlcNAc(b1-3)Gal(b1-4)GlcNAc(b1-3)Gal(b1-4)GlcNAc(b1-2)Man(a1-6)]Man(b1-4)GlcNAc(b1-4)GlcNAc
# Method in brief: as §1
# [4] = molecular target: GlcNAc(b1-3)Gal(b1-4)GlcNAc(b1-3)Gal(b1-4)GlcNAc(b1-3)Gal(b1-4)GlcNAc(b1-2)Man(a1-3)[GlcNAc(b1-3)Gal(b1-4)GlcNAc(b1-3)Gal(b1-4)GlcNAc(b1-3)Gal(b1-4)GlcNAc(b1-2)Man(a1-6)]Man(b1-4)GlcNAc(b1-4)[Fuc(a1-6)]GlcNAc
# Method in brief: as §1
# [5] = molecular target: GlcNAc(b1-3)Gal(b1-4)GlcNAc(b1-3)Gal(b1-4)GlcNAc(b1-3)Gal(b1-4)GlcNAc(b1-2)[GlcNAc(b1-3)Gal(b1-4)GlcNAc(b1-3)Gal(b1-4)GlcNAc(b1-3)Gal(b1-4)GlcNAc(b1-6)]Man(a1-6)[GlcNAc(b1-3)Gal(b1-4)GlcNAc(b1-3)Gal(b1-4)GlcNAc(b1-3)Gal(b1-4)GlcNAc(b1-2)Man(a1-3)]Man(b1-4)GlcNAc(b1-4)[Fuc(a1-6)]GlcNAc
# Method in brief: as §1
# [6] = molecular target: GlcNAc(b1-3)Gal(b1-4)GlcNAc(b1-3)Gal(b1-4)GlcNAc(b1-3)Gal(b1-4)GlcNAc(b1-3)Gal(b1-4)GlcNAc(b1-2)Man(a1-3)[GlcNAc(b1-3)Gal(b1-4)GlcNAc(b1-3)Gal(b1-4)GlcNAc(b1-3)Gal(b1-4)GlcNAc(b1-3)Gal(b1-4)GlcNAc(b1-2)Man(a1-6)]Man(b1-4)GlcNAc(b1-4)GlcNAc
# Method in brief: as §1
# [7] = molecular target: GlcNAc(b1-3)Gal(b1-4)GlcNAc(b1-3)Gal(b1-4)GlcNAc(b1-3)Gal(b1-4)GlcNAc(b1-3)Gal(b1-4)GlcNAc(b1-2)Man(a1-3)[GlcNAc(b1-3)Gal(b1-4)GlcNAc(b1-3)Gal(b1-4)GlcNAc(b1-3)Gal(b1-4)GlcNAc(b1-3)Gal(b1-4)GlcNAc(b1-2)Man(a1-6)]Man(b1-4)GlcNAc(b1-4)[Fuc(a1-6)]GlcNAc
# Method in brief: as §1
# [8] = molecular target: GlcNAc(b1-3)Gal(b1-4)GlcNAc(b1-3)Gal(b1-4)GlcNAc(b1-3)Gal(b1-4)GlcNAc(b1-3)Gal(b1-4)GlcNAc(b1-2)[GlcNAc(b1-3)Gal(b1-4)GlcNAc(b1-3)Gal(b1-4)GlcNAc(b1-3)Gal(b1-4)GlcNAc(b1-3)Gal(b1-4)GlcNAc(b1-6)]Man(a1-6)[GlcNAc(b1-3)Gal(b1-4)GlcNAc(b1-3)Gal(b1-4)GlcNAc(b1-3)Gal(b1-4)GlcNAc(b1-3)Gal(b1-4)GlcNAc(b1-2)Man(a1-3)]Man(b1-4)GlcNAc(b1-4)[Fuc(a1-6)]GlcNAc
# Method in brief: as §1
# [9] = molecular target: GlcNAc(b1-3)Gal(b1-4)GlcNAc(b1-3)Gal(b1-4)GlcNAc(b1-3)GalNAc
# Method in brief: as §1
# [10] = molecular target: GlcNAc(b1-3)Gal(b1-4)GlcNAc(b1-3)GalNAc
# Method in brief: as §1
# [11] = molecular target: GlcNAc(b1-3)Gal(b1-4)GlcNAc(b1-3)[GlcNAc(b1-3)Gal(b1-4)GlcNAc(b1-3)]GalNAc
# Method in brief: as §1
# [12] = molecular target: GlcNAc(b1-3)Gal(b1-4)GlcNAc(b1-6)[Gal(b1-3)]GalNAc
# Method in brief: as §1
# [13] = molecular target: GlcNAc(b1-3)Gal(b1-4)GlcNAc(b1-6)[GlcNAc(b1-3)Gal(b1-3)]GalNAc
# Method in brief: as §1
# [14] = molecular target: GlcNAc(b1-3)Gal(b1-4)GlcNAc(b1-6)[GlcNAc(b1-3)]Gal(b1-4)GlcNAc
# Method in brief: as §1
# [15] = molecular target: GlcNAc(b1-3)GalNAc
# Method in brief: as §1
# [16] = molecular target: GlcNAc(b1-3)Man
# Method in brief: as §1
# [17] = molecular target: GlcNAc(b1-3)[GlcNAc(b1-4)][GlcNAc(b1-6)]GlcNAc
# Method in brief: as §1
# [18] = molecular target: GlcNAc(b1-3)[GlcNAc(b1-6)]Gal(b1-4)GlcNAc
# Method in brief: as §1
# [19] = molecular target: GlcNAc(b1-3)[GlcNAc(b1-6)]GalNAc
# Method in brief: as §1
# [20] = molecular target: GlcNAc(b1-4)Gal(b1-4)GlcNAc
# Method in brief: as §1
# [21] = molecular target: GlcNAc(b1-4)GlcNAc
# Method in brief: as §1
# [22] = molecular target: GlcNAc(b1-4)GlcNAc(b1-4)GlcNAc
# Method in brief: as §1
# [23] = molecular target: GlcNAc(b1-4)GlcNAc(b1-4)GlcNAc(b1-4)GlcNAc(b1-4)GlcNAc
# Method in brief: as §1
binder,measurement,setting,value
rEtpA (Escherichia coli) (protein) MNRIYKLKFDKRRNELVVVSEITTGVGNAKATGSVEGEKSPRRGVRAMALSLLSGMMIMAHPAMSANLPTGGQIVAGSGSIQTPSGNQMNIHQNSQNMVANWNSFDIGKGNTVQFDQPSSSAVALNRVVGGGESQIMGNLKANGQVFLVNPNGVLFGEGASVSTSGFVASTRDIKNDDFMNRRYTFSGGQKAGAAIVNQGELTTNAGGYIVLAADRVSNSGTIRTPGGKTVLAASERITLQLDNGGLMSVQVTGDVVNALVENRGLVSARDGQVYLTALGRGMLMNTVLNVSGVVEASGMHRQDGNIVLDGGDSGVVHLSGTLQADNASGQGGKVVVQGKNILLDKGSNITATGGQGGGEVYVGGGWQGKDSNIRNADKVVMQGGARIDVSATQQGNGGTAVLWSDSYTNFHGQISAKGGETGGNGGRVETSSHGNLQAFGTVSASAKKGKAGNWLLDSADITIVNGSNVSKTETTQSPPHTQFAPTAAGSAVSNTSINNRLNNGTSVTILTHRTRTGTAQGGNITVNAAINKSNGSDVNLTLQAGGNITVNNSITSTEGKLNVNLSGARTSNGSITISNNANITTNGGDITVGTTNTSNRVNISINNTTLNASNGNIQLTGTGTDSGILFAGNNRLTASNIALTGNSTSGNAINLTGTATLNATNNITLTGSSTSGNAINLKGNNTLTASNITLTGESTSGNAINLTDTTGTTTLNATNNITMQGTRVQIKHSNITAGNFALNATVAGSEISNTTLTATNNINLAAKTNSASSGVYLKDARITSTNGSITANGTATANGKATHLDGNVTLNASNGRIKLTGNGHGSASGILFAGNNRLTASNIALTGNSTSGNAINLTGTATLNATNDITLTGSSTSGNAINLTGTATLNATNNITLTGSSTSGNAINLKGNNTLTASNITLTGESTSGNAINLTDTTGTTTLNATNNITMQGTRVQIKHSNITAGNFALNATVAGSEISNTTLTATNNINLAAKTNSASSGVYLKDARITSTNGSITANGTATANGKATHLDGNVTLNASNGRIKLTGNGHGSASGILFAGNNRLTASNIALTGNSTSGNAINLTGTATLNATNDITLTGSSTSGNAINLTGTATLNATNNITLTGSSTSGNAINLKGNNTLTASNITLTGESTSGNAINLTDTTGTTTLNATNNITMQGTRVQIKHSNITAGNFALNATVAGSEISNTTLTATNNINLAAKTNSASSGVYLKDARITSTNGSITANGTATANGKATHLDGNVTLNASNGRIKLTGNGHGSASGILFAGNNRLTASNIALTGNSTSGNAINLTGTATLNATNDITLTGSSTSGNAINLTGTATLNATNNITLTGSSTSGNAINLKGNNTLTASNITLTGESTSGNAINLTDTTGTTTLNATNNITMQGTRVQIKHSNITAGNFALNATVAGSEISNTTLTATNNINLAAKTNSASSGVYLKDARITSTNGSITTNGTATANGKATHLDGNVTLNASNGRIKLTGNGHGSASGILFAGNNRLTASNIALTGNSTSGNAINLTGTATLNATNDITLTGSSTSGNAINLTGTATLNATNNITLTGSSTSGNAINLKGNNTLTASNITLTGESTSGNAINLTDTTGTTTLNATNNITMQGTRVQIKHSNITAGNFALNATVAGSEISNTTLTATNNINLAAKTNSASSGVYLKDARITSTNGSITANGTAPANDNATYLDGNVTLNASNGSIKLTGNGNGSTSGILFAGNNTLTASNITLTGNSEVYWQKLGPEQKLISEEDLNSAVDHHHHHH,glycan array binding signal (z-score),[1],-0.303
same,glycan array binding signal (z-score),[2],-0.348
same,glycan array binding signal (z-score),[3],-0.304
same,glycan array binding signal (z-score),[4],-0.338
same,glycan array binding signal (z-score),[5],-0.288
same,glycan array binding signal (z-score),[6],-0.353
same,glycan array binding signal (z-score),[7],-0.388
same,glycan array binding signal (z-score),[8],-0.164
same,glycan array binding signal (z-score),[9],-0.402
same,glycan array binding signal (z-score),[10],-0.351
same,glycan array binding signal (z-score),[11],-0.402
same,glycan array binding signal (z-score),[12],-0.336
same,glycan array binding signal (z-score),[13],-0.401
same,glycan array binding signal (z-score),[14],-0.396
same,glycan array binding signal (z-score),[15],-0.295
same,glycan array binding signal (z-score),[16],0.178
same,glycan array binding signal (z-score),[17],-0.422
same,glycan array binding signal (z-score),[18],-0.354
same,glycan array binding signal (z-score),[19],-0.216
same,glycan array binding signal (z-score),[20],-0.316
same,glycan array binding signal (z-score),[21],-0.234
same,glycan array binding signal (z-score),[22],-0.465
same,glycan array binding signal (z-score),[23],-0.384
